Results: the antibiotic and cytotoxicity screens of Wong et al. (2023)
The list shows a part of the results.

Each compound was assayed on HSkMC (human skeletal muscle cells) (assay: cytotoxicity call (relative viability < 0.9)). Settings: 10 µM.

Row | Compound | cytotoxicity call
1 | COc1ccc(NC(=O)Nc2ccc3c(c2)CC(=O)N([C@H](C)CO)C[C@H](C)[C@H](CN(C)Cc2ccc(Cl)c(Cl)c2)O3)cc1 | inactive
2 | CCS(=O)(=O)N1C[C@]2(CCN(CC2)S(=O)(=O)c2ccccc2)c2c(n(c3cc(ccc23)OC)C)[C@@H]1CO | inactive
3 | C[C@H]1CN([C@@H](C)CO)C(=O)c2cccc(NS(=O)(=O)c3ccc(F)cc3)c2O[C@H]1CN(C)C(=O)Nc1cccc2ccccc12 | inactive
4 | O=C(C1=C[C@H](c2coc3ccccc3c2=O)C[C@H](OCCCCO)O1)N1CCN(Cc2ccc3c(c2)OCO3)CC1 | inactive
5 | C[C@@H]1CN([C@H](C)CO)C(=O)c2c(c3ccccc3n2C)-c2ccccc2CO[C@H]1CN(C)Cc1ccc(F)cc1 | inactive
6 | CS(=O)(=O)N1CCOC[C@]2(CN(C(=O)c3ccc[nH]3)CCO2)C1 | inactive
7 | Cc1cc(C(=O)Nc2cccc3c2O[C@H](CN(C)C(=O)Nc2ccccc2)[C@@H](C)CN([C@H](C)CO)C3=O)n(C)n1 | inactive
8 | O=C(O)Cn1cc(Br)c(=O)[nH]c1=O | inactive
9 | C[C@@H]1CCCCO[C@@H](CN(C)S(=O)(=O)c2cn(C)cn2)[C@H](C)CN([C@@H](C)CO)C(=O)c2cc(NS(=O)(=O)c3cn(C)cn3)ccc2O1 | inactive
10 | COc1ccc(S(=O)(=O)Nc2ccc3c(c2)C(=O)N([C@H](C)CO)C[C@H](C)[C@H](CN(C)CC2CC2)O3)cc1 | inactive
11 | C[C@H]1CCCCO[C@H](CN(C)C(=O)Nc2ccc(C(F)(F)F)cc2)[C@@H](C)CN([C@@H](C)CO)C(=O)c2cc(NC(=O)c3ccncc3)ccc2O1 | inactive
12 | C[C@H](CO)N1C[C@H](C)[C@@H](CN(C)S(=O)(=O)c2ccccc2)Oc2ccc(NC(=O)Cn3cnnn3)cc2C1=O | inactive
13 | COCC(=O)N(C)C[C@H]1Oc2cc(C#Cc3ccccc3)ccc2S(=O)(=O)N([C@@H](C)CO)C[C@@H]1C | inactive
14 | Cc1noc(C)c1NC(=O)Nc1ccc2c(c1)C(=O)N([C@H](C)CO)C[C@H](C)[C@H](CN(C)C(=O)Nc1c(C)noc1C)OCCCC[C@H](C)O2 | inactive
15 | C[C@@H]1CCCCO[C@@H](CN(C)C(=O)Nc2ccc(C(F)(F)F)cc2)[C@H](C)CN([C@@H](C)CO)C(=O)c2cc(NC(=O)Nc3cccc4ccccc34)ccc2O1 | inactive
16 | COc1ccc(S(=O)(=O)N(C)C[C@H]2Oc3c(NC(=O)C4CCOCC4)cccc3C(=O)N([C@@H](C)CO)C[C@H]2C)cc1 | inactive
17 | CNC[C@@H]1Oc2cc(C#CCN(C)C)ccc2S(=O)(=O)N([C@@H](C)CO)C[C@H]1C | inactive
18 | C[C@H]1CN([C@@H](C)CO)C(=O)c2cc(C#CCc3ccccc3)cnc2O[C@H]1CN(C)CC1CCOCC1 | inactive
19 | C[C@H]1CCCCO[C@H](CN(C)Cc2ccccc2)[C@@H](C)CN([C@@H](C)CO)C(=O)c2cc(NC(=O)Cc3ccccc3)ccc2O1 | inactive
20 | CO[C@@H]1CN(C)C(=O)c2ccc(NC(=O)Nc3cccc(Cl)c3)cc2OC[C@H](C)N(C(=O)Nc2c(C)noc2C)C[C@H]1C | inactive

Row | Compound | cytotoxicity call
21 | O=C(C[C@H]1C[C@@H]2c3cc(NS(=O)(=O)c4ccc(F)cc4)ccc3O[C@@H]2[C@@H](CO)O1)N1CCCCC1 | inactive
22 | C[C@@H]1CCCCO[C@@H](CN(C)CC2CC2)[C@H](C)CN([C@@H](C)CO)C(=O)c2cc(NC(=O)NC3CCCCC3)ccc2O1 | inactive
23 | Cn1cc(-c2nc(N[C@@H]3CCCC[C@@H]3N)c(F)c3c2C(=O)NC3)cn1 | inactive
24 | NC(=O)c1nnn(Cc2ccccc2)c1N | inactive
25 | CO[C@@H](CN(C)S(=O)(=O)c1cccc(Cl)c1)[C@H](C)CN([C@H](C)CO)S(=O)(=O)c1cccc(Cl)c1 | inactive
26 | COc1ccc(CN(c2ncns2)S(=O)(=O)c2ccc(Oc3c(F)cc(F)cc3-c3ccnn3C)c(C#N)c2)c(OC)c1 | inactive
27 | Cc1noc(C)c1S(=O)(=O)Nc1ccc2c(c1)C(=O)N([C@@H](C)CO)C[C@H](C)[C@@H](CN(C)CC1CCCCC1)OCCCC[C@H](C)O2 | inactive
28 | COc1ccc(S(=O)(=O)N(C)C[C@H]2Oc3ccc(NC(=O)Nc4c(C)noc4C)cc3C(=O)N([C@@H](C)CO)C[C@@H]2C)cc1 | inactive
29 | COc1ccc(C#Cc2ccc3c(c2)O[C@H](CN(C)C(=O)CN2CCOCC2)[C@@H](C)CN([C@H](C)CO)S3(=O)=O)cc1 | inactive
30 | C[C@@H]1CN([C@@H](C)CO)C(=O)c2cccc(NC(=O)c3ccc(-c4nccs4)cc3)c2O[C@@H]1CN(C)Cc1ccc(Cl)c(Cl)c1 | inactive
31 | C[C@@H]1CN([C@@H](C)CO)C(=O)Cc2cc(NC(=O)CCN3CCOCC3)ccc2O[C@@H]1CN(C)CC1CC1 | inactive
32 | CC(C)=CCC/C(C)=C/C=O | inactive
33 | O=C(CS)NCCCCCNC(=O)[C@@H]1C[C@@H]2C(=O)N[C@@H](Cc3ccccc3)C(=O)N2[C@@H]1c1ccc(O)cc1 | inactive
34 | Cc1noc(C)c1NC(=O)N(C)C[C@@H]1Oc2c(NS(=O)(=O)c3cn(C)cn3)cccc2C(=O)N([C@@H](C)CO)C[C@@H]1C | inactive
35 | NCC[C@H]1CC[C@H](NC(=O)Nc2ccc(F)cc2)[C@H](CO)O1 | inactive
36 | NCC[C@H]1CC[C@H](NC(=O)C2CCCCC2)[C@H](CO)O1 | inactive
37 | C[C@H](O)C#Cc1ccc2c(c1)O[C@@H](CN(C)C)[C@H](C)CN([C@H](C)CO)S2(=O)=O | inactive
38 | C[C@H](CO)N1C[C@H](C)[C@@H](CN(C)C(=O)c2cc(Cl)cc(Cl)c2)OCc2ccccc2-c2c(n(C)c3ccccc23)C1=O | active
39 | CC1CC2C3CCC4=CC(=O)C=CC4(C)C3(F)C(O)CC2(C)C1(O)C(=O)COP(=O)([O-])[O-].[Na+].[Na+] (stereo not given) | inactive
40 | C[C@H]1CN([C@@H](C)CO)C(=O)Cc2cc(NC(=O)Nc3ccc(C(F)(F)F)cc3)ccc2O[C@H]1CN(C)Cc1ccncc1 | inactive
